The full ranking holds about 110,000 compounds; the median of “z-score” is about -0.1, and the highest 2% start at about 2. The list shows a part of the results. The source made the active and inactive calls.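 Rule for the calls: active = z-score in the third read window above 3 or below -3; inactive = the rest.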

The target in this assay is Metabotropic glutamate receptor 8 (Rattus norvegicus) (UniProt P70579). As to the kind of experiment: mGluR8 Gi/Go-coupled signaling modulation – cell-based, rat, thallium flux, HTS, primary screen (AID 488969). The conditions noted are these: HEK293 rat mGluR8, GIRK (G protein-gated inwardly rectifying potassium channel) thallium flux, FluoZin2; at 10 µM; stronger effect = higher value; submaximal glutamate (EC20) added with thallium.
Chain of UniProt P70579 (P70579 whole entry, looked up): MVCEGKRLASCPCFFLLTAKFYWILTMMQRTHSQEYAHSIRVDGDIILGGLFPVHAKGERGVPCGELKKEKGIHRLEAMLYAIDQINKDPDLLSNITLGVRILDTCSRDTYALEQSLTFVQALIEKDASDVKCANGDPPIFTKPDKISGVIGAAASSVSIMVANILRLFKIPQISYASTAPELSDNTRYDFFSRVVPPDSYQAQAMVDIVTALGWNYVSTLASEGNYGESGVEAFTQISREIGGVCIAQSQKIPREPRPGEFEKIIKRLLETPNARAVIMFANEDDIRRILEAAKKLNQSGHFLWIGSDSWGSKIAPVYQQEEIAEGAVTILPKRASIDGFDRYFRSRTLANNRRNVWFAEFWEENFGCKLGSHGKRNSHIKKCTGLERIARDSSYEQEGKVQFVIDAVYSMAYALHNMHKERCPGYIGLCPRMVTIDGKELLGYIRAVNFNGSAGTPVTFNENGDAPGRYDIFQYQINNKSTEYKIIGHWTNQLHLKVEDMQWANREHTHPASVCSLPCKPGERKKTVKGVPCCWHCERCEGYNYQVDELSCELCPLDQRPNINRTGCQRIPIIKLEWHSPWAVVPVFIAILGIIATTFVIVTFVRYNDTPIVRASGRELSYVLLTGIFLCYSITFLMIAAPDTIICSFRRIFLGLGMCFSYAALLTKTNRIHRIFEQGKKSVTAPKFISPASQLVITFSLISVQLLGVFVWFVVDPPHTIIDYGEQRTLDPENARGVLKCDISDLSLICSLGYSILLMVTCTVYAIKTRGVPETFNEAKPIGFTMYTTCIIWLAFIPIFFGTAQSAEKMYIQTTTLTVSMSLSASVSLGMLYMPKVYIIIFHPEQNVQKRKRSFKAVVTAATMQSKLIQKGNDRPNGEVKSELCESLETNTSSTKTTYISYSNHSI
Regarding `COc1cccc(/C=C/c2ccncc2)c1OC`, the z-score is 0.776. `CC(C)C1=Nc2cccc3cccc(c23)N1` yielded a z-score of -0.0614. `CC1(C)CC(C)(c2ccc(O)cc2O)N(c2ccc3ccccc3c2)C(=S)N1` (configuration not stated) returned a z-score of 0.207. Regarding `COc1cc2c(cc1NC(=O)/C=C/c1ccc([N+](=O)[O-])cc1)oc1ccccc12`, the z-score came to 0.0287. The value for `Clc1ccc2nc(C3CCN(Cc4ccccc4)CC3)[nH]c2c1` was -0.115; that for `CCc1nc(C)cn1S(=O)(=O)c1cc(OC)c(C)cc1C` was -1.12. The value for `O=C(N/N=C/c1ccsc1)c1cc(O)cc(O)c1` was -0.223.

As for `Cc1nn(Cc2ccccc2)c(C)c1NC(=O)c1ccc([N+](=O)[O-])cc1[N+](=O)[O-]`, the z-score is -0.302.

On to `O=C(c1cc2ccccc2oc1=O)N(Cc1ccccc1)Cc1ccc2c(c1)OCO2`, for which the z-score is -0.492. The value for `O=C(Nc1cccc(F)c1)c1cc(S(=O)(=O)NCCC2=CCCCC2)ccc1F` was -0.143; that for `Cc1cc(-c2n[nH]c(=S)n2Cc2ccco2)nn1C` was -0.0547; that for `COc1ccc(NC(=O)c2cccnc2N2CCCCC2)cc1` was -0.363.

`CCc1cc(=O)oc2cc3occ(C)c3cc12` registered a z-score of -0.331. The value for `CCOc1ccc2ccccc2c1/C=N/n1cncn1` was -0.41.

Turning to `Cc1ccc2[nH]c3c(N4CCOCC4)ncnc3c2c1`, the z-score was found to be 0.00257.

`Cc1ccc(Cl)cc1N1CCN(C(=O)c2cc3c(=O)n(C)c4ccccc4c3n2C)CC1` returned a z-score of 0.437. `CCN(CC)S(=O)(=O)c1ccc2nc(NC(=O)c3cccs3)sc2c1`: the z-score is -0.178. The value for `CC(=O)Nc1ccc(-c2csc(NC(=O)c3ccc(C)o3)n2)cc1` was -0.019; that for `Cc1ccc(/C(=N\O)c2oc3c(C)c4oc(=O)cc(C)c4cc3c2C)cc1` was -1.24; that for `N#CC1=C(N)S[C@H](C(=O)C23CC4CC(CC(C4)C2)C3)[C@H]1c1ccncc1` was 1.66.

For `Cc1ccc(Nc2nc(N)nc(CN3CCC(C)CC3)n2)c(C)c1`, the z-score is -0.000421. The value for `O=C(CCSc1nnc(-c2ccncc2)o1)Nc1cccc2ccccc12` was -0.0136. The value for `Cc1cccc(C(=O)O/N=C(\N)Cc2ccc([N+](=O)[O-])cc2)c1` was 0.123; that for `c1ccc(Cn2cnc3ccccc32)cc1` was 0.828; that for `COc1ccccc1NS(=O)(=O)c1ccccc1C#N` was 0.296. The value for `Cc1noc(C)c1S(=O)(=O)N1CCCC(C(=O)NC2CCCCC2)C1` (configuration not stated) was -0.104; that for `CC(=O)Nc1ccc(C(=O)OCC(=O)N(Cc2ccccc2)C(C)(C)C)cc1` was -0.178. In turn, `O=C1[C@@H]2C(Cc3ccc(O)cc3)NC3(C(=O)Nc4ccc(F)cc43)[C@@H]2C(=O)N1c1ccccc1` (some centres not stated) had a z-score of 0.0633. The value for `Cc1ccc(SCc2c(C#N)c3ccccc3n2C)cc1` was 0.42. The value for `CC(C)OCC(O)CN` (configuration not stated) was 0.255; that for `O=C1CC(SCc2nc3ccccc3[nH]2)C(=O)N1c1ccc(F)cc1` (configuration not stated) was 0.0187; that for `CC(C)(C)n1nnnc1C(c1cc2cc3c(cc2[nH]c1=O)OCO3)N1CCN(c2ccccc2)CC1` (configuration not stated) was -0.356. Regarding `Cc1cc(C)cc(OCc2nnc(SCC(=O)Nc3ccccc3)o2)c1`, the z-score came out at 0.0889.

Regarding `CC(=O)OC(C(=O)NC1CCCCC1)c1ccccc1` (configuration not stated), the z-score is -0.037.

As for `CCOC(=O)N1N=C(c2ccccc2)CC1(O)C(F)(F)F` (configuration not stated), the z-score was -0.18. For the compound `CCC(=O)Nc1cccc(NC(=S)NC(=O)Cc2ccccc2)c1`, the z-score was -0.281.

Compound `CCOC(=O)N1CCN(C(=O)C(NC(=O)C2CCC(C)CC2)C(C)C)CC1` (configuration not stated) showed a z-score of -0.06.

Compound `Cn1c(=O)c2c(nc(Br)n2CCSc2nnnn2-c2ccccc2)n(C)c1=O` displayed a z-score of 0.288. In turn, `CCNC(=O)/C=C1\NC(C)(C)Cc2c1ccc1ccccc21` had a z-score of -0.461. The value for `Cc1ccc(-c2cc(C(F)F)n3ncc(C(=O)Nc4c(C)nn(Cc5ccccc5Cl)c4C)c3n2)cc1` was -0.591; that for `CC(C)NC(=O)NC(=O)COC(=O)c1ccccc1Oc1ccccc1` was -1.55. The value for `COc1ccc(C2(CN(C(C)=O)C(C)=O)CCCC2)cc1OC` was 0.926; that for `COc1ccc2c(c1)C(C)CC(C)(C)N2C(=O)CSc1nc2ccccc2s1` (configuration not stated) was -0.0495. The value for `CCOC(=O)COc1c(Br)cc(/C=C2\SC(=O)N(CC(=O)N3CCCC3)C2=O)cc1OC` was -0.0897; that for `COc1ccc(CN2CCn3ncc(C(=O)Nc4ccc(Cl)cc4Cl)c3C2=O)cc1` was -0.0573; that for `COc1ccc(C(=O)c2sc(NC(C)C)nc2N)cc1OC` was 0.954.

In turn, `CC(C(=O)O)N1C(=O)CSc2ncccc21` (configuration not stated) yielded a z-score of -0.732. The compound `COc1ccc(/C=N/NC(=O)c2ccc(Cn3cc([N+](=O)[O-])cn3)o2)c(OC)c1C` showed a z-score of -0.253.

`COc1ccc(C(=S)N2CCCCCC2)cc1` showed a z-score of -0.075. The value for `CCOC(=O)C1CCN(C(=O)C2CCN(S(=O)(=O)CC)CC2)CC1` was -0.558; that for `O=C(NCCCn1ccnc1)c1csc2ccccc12` was 0.115; that for `CCc1ccc(CNCc2cccnc2)cc1` was 0.22.

Compound `COC(=O)c1ccc(/C=N/Nc2nc(-c3ccccc3)cs2)cc1` returned a z-score of 0.584. The value for `CC(=O)Nc1ccc(-c2csc(NCc3ccco3)n2)cc1` was -0.435; that for `O=C(Nc1ccccc1OC(F)F)c1ccc(Br)o1` was -0.353; that for `O=C(CSc1nc2ccc([N+](=O)[O-])cc2[nH]1)c1ccc(Cl)cc1` was -0.137. The value for `COc1ccc2nc(NC(=O)C3CCCN(S(=O)(=O)c4cccs4)C3)sc2c1` (configuration not stated) was -0.119; that for `CCCCNC(=O)c1cccnc1SCC(=O)Nc1ccccc1OC` was -0.302. The value for `CC(C)(C)n1ncc2c(=O)n(CC(=O)OCc3ccccc3)cnc21` was -1.62. `O=C(COC(=O)C1CC2C=CC1C2)Nc1ccccc1` (configuration not stated): the z-score is 0.0334. The value for `COC(=O)c1cccc(N2C(=O)c3cccnc3C2=O)c1` was -0.446; that for `Cc1onc(-c2ccccc2)c1C(=O)NC(=S)NNC(=O)c1ccc(O)cc1` was -0.0811. The value for `CCOc1cccc2c1OC1(C)CC2NC(=O)N1c1cccc(Cl)c1` (configuration not stated) was 0.891. `COc1ccc(NC(=O)C2CCN(C(=O)c3ccccc3)CC2)c(OC)c1` gave a z-score of -1.36. `CC(NC(=O)c1ccncc1)C(c1cccs1)N1CCOCC1` (configuration not stated) returned a z-score of -0.25. The value for `CCc1nnc(NC(=O)CSc2ccc(-c3nc4ccc(C)cc4[nH]3)cn2)s1` was -0.634. The value for `O=C(NCc1nnc(SCC(=O)N2CCN(c3ccccc3)CC2)o1)c1ccco1` was -0.268; that for `COc1ccc(C(=O)c2cnc3cc4c(cc3c2C)OCO4)cc1` was 0.728; that for `N#CC1=C2N=C(N)c3c(sc4c3CCCCC4)N2C2=C(C(=O)CCC2)C1c1ccccc1` (configuration not stated) was -0.145. The value for `COc1ccc(C2CC2/C(=N/OC(=O)c2cccs2)c2ccccc2)cc1` (configuration not stated) was 0.0512.

The compound `CCCNC(=O)c1ccccc1NC(=O)CN(c1ccccc1OCC)S(C)(=O)=O` gave a z-score of 0.0372.

For `O=P(O)(CCc1ccccn1)CN1CCCCC1`, the z-score was -0.0234.

The compound `O=C(O)c1ccc2c(c1)C(=O)N(N1C(=O)c3ccccc3C1=O)C2=O` gave a z-score of -0.141. The value for `O=C(Cc1cccc2ccccc12)NNC(=O)c1cccs1` was 0.554; that for `COc1ccc(-c2cc(C(F)(F)F)nc(SCC(=O)N3CC(C)OC(C)C3)n2)cc1OC` (configuration not stated) was -1.34. The value for `O=C(CSc1nnc(SCc2ccc(Cl)cc2)s1)N/N=C/c1ccccc1Cl` was -1.47. The value for `COCC(C)n1c(C)cc(C(=O)COC(=O)CNC(=O)c2ccccc2)c1C` (configuration not stated) was -0.22; that for `COc1cccc(NC(=O)c2nnn(CCc3ccccc3)c2N)c1` was -1.07; that for `COCCn1c(=NC(=O)/C=C/c2ccccc2)sc2cc(NC(C)=O)ccc21` was -0.286.

Consider `CC(SCc1ccccc1)C(=O)N/N=C/c1ccc2c(c1)OCO2` (configuration not stated), for which the z-score is -0.211. The value for `CCCn1c(=N)n(CC(=O)c2ccco2)c2ccccc21` was -0.051; that for `CC(=O)c1c(C)[nH]c(C(=O)CSc2nnc(C3CCCCC3)n2N)c1C` was -0.783. The value for `O=C(c1scc2c1CCCC2)N1CCCCC1` was -0.475; that for `C=CCNc1nc(-c2sc(NC(C)=O)nc2C)cs1` was 1.33; that for `Cc1ccc(NC(=S)NNC(=S)NCc2ccccc2)cc1` was 0.905. The value for `O=C(Cn1cc(C(=O)c2cccs2)c2ccccc21)NCC1CCCO1` (configuration not stated) was -0.355.

As to `O=C1Nc2cc(S(=O)(=O)N3CCCC3)ccc2N2CCCC12` (configuration not stated), the z-score was -0.878. The value for `CCCCCCCCCc1nc(N)n[nH]1` was -0.191; that for `CCOC(=O)Cc1csc(N)n1` was -0.109. The value for `Cc1ccc(S(=O)(=O)CCc2nnc(NC(=O)c3cnccn3)s2)cc1` was 0.152. The value for `CCN(CC)S(=O)(=O)c1ccc(N2CCOCC2)c(NC(=O)Cc2ccccc2F)c1` was -0.0749. On to `FC(F)(F)c1nnc2c(Sc3ccc(Cl)cc3)nc3ccccc3n12`, for which the z-score amounted to 0.0577. The value for `CCOc1ccc2nc(NC(=O)C3CCCN(S(=O)(=O)c4cccc5nonc45)C3)sc2c1` (configuration not stated) was -1.42; that for `CCC(=O)NC(NC(=S)Nc1c(C)n(C)n(-c2ccccc2)c1=O)C(Cl)(Cl)Cl` (configuration not stated) was -0.491; that for `C1CCCN(CCCCN2CCCCCC2)CC1` was 1.95. The value for `COc1cc(C#CC#CCN2CCCCC2)ccc1O` was 2.82. Compound `C(#Cc1ccc(C#CCN2CCCC2)cc1)CN1CCCC1` showed a z-score of -0.647. Compound `O=C(c1ccc(CS(=O)(=O)c2cccc(C(F)(F)F)c2)o1)N1CCN(c2ccccn2)CC1` gave a z-score of -0.681. In turn, `CCOC(=O)c1c(NC(=S)Nc2ccc(OC)cc2)sc2c1CCC2` yielded a z-score of 0.905. The value for `CN(C)C(=O)CSc1nnc(-c2cnccn2)n1C` was -0.224. On to `CO/N=C/NC(=O)c1c(OC)ccnc1Oc1ccc(F)cc1`, for which the z-score was determined as 0.177. `Cn1cccc1CNC(=O)Nc1ccccc1` registered a z-score of -0.163. The value for `CC(c1nc2ccccc2c(=O)[nH]1)N(C)c1ccc2ccccc2c1` (configuration not stated) was -0.151; that for `CCCCN(C)CC(O)Cn1cc(/C=C/C(=O)c2cccs2)c2ccccc21` (configuration not stated) was active: -3.19; that for `CCC(c1nc2ccccc2c(=O)n1-c1cccnc1)N1C(=O)c2ccccc2C1=O` (configuration not stated) was 0.00964. Regarding `CSc1ccc(/C=C(\C#N)C(=O)NC2CCCCC2)cc1`, the z-score was -0.555.

The compound `CCOc1cc(/C=C2/SC(=O)N(CC(=O)N3CCc4ccccc4C3)C2=O)ccc1OCC(=O)O` had a z-score of 0.146. For the compound `CSc1nnc(-c2ccccc2Cl)o1`, the z-score is -0.168. The value for `Nc1ccc(C(=O)OCC(=O)Nc2ccc([N+](=O)[O-])cc2C(F)(F)F)cc1` was -0.334; that for `COc1ccc(C(O)c2coc3ccc(O)c(CN(C)C)c23)cc1` (configuration not stated) was 1.14. The value for `CCc1cc(C(c2ccc(OC)c(OC)c2)N2CCOCC2)c(NC(=O)c2ccccc2)s1` (configuration not stated) was -0.47; that for `COCCCNC(=O)Nc1ccc2c(c1)N(C)C(=O)CS2` was -0.0792.
